Test results published in PubChem BioAssay AID2675 (National Center for Advancing Translational Sciences (NCATS), 2010).
Screen size: about 280,000 compounds; about 100 (0.036%) were called active. The shares of active, inactive and inconclusive entries below differ from those in the screen. Calls follow the shape of the dose curve; as a rule, active = well fitted inhibition curve with a large enough effect in the signal ratio, with a control signal flat (not every such curve was filed as active); inconclusive = small, poorly fitted or top-dose-only effect, or effect the other way, or a change in a side signal; inactive = no such curve, though single readings can be large or run the other way; the % refers to the signal ratio. A potency beside an inconclusive call is a rough fit, not a confirmed value. “Side channel” marks fits to a control or component signal instead of the main read-out.
% is scaled to controls: 0 for no effect and ±100 for the full control effect; potency is read from the fitted curve at half-maximal effect; tags tell the direction and shape of the fitted curve or compound fluorescence and quenching.

These compounds were tested against Muscleblind-like protein 1 (Homo sapiens) (UniProt Q9NR56) (assay: qHTS Assay for Inhibitors of MBNL1-poly(CUG) RNA binding). Details: TR-FRET MBNL1-His/biotin-(CUG)12 binding, 665/545 ratio; activity change, negative = inhibition: at 57.5 µM (top of the series).
Sequence of UniProt Q9NR56 (Q9NR56 whole entry, looked up): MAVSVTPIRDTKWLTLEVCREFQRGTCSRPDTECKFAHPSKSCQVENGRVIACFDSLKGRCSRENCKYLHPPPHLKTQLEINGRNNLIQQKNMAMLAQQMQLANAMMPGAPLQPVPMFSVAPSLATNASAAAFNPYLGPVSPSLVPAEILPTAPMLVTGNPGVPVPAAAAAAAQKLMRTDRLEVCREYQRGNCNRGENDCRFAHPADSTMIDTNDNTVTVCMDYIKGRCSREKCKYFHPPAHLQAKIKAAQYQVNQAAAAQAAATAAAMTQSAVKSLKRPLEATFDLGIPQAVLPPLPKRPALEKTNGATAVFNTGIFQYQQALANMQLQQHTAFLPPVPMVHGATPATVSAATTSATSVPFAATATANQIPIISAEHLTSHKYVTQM
Method in brief: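 Ratiometric TR-FRET (665 over 545 nm, excitation 340 nm) tracks disruption of MBNL1-His/biotin-(CUG)12 complex after 60 min at room temperature, with compounds at 92 nM to 58 uM final.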
For O=C1CCC(=O)c2oc3ccccc3c2N1, the Potency was inconclusive: 14.1 µM [quencher, side channel, partial curve]. In the case of CCOC(=O)N1CCN(C(=O)c2cc3c(s2)-c2ccc(Cl)cc2S(=O)(=O)C3)CC1, the Potency is reported as inconclusive: 3.98 µM [quencher, side channel, partial curve]. O=C(CCCSc1nc2ccccc2[nH]1)N1CCN(c2ccc([N+](=O)[O-])cc2)CC1 was tested, and the Potency was “inactive”. With O=C(Nc1cccc(Cl)c1)Nc1ccc2nccnc2c1 the Potency was inconclusive: 17.8 µM [quencher, side channel, partial curve]. With c1ccc(Sc2cnc3ccccc3n2)cc1 the Potency was inconclusive: 25.1 µM [quencher, partial curve]. For CN(CCO)S(=O)(=O)c1ccc2c(c1)C(=NN)c1cc(S(=O)(=O)N(C)CCO)ccc1-2, the Potency was inconclusive: 12.6 µM [quencher, side channel, partial curve]. COc1ccc(Cn2c(SCc3ccc(C)cc3)nc3cc(OC)c(OC)cc3c2=N)cc1Cl was tested, and the Potency was inconclusive: 0.891 µM [quencher, side channel, single point]. For CC(C)CCSc1nc(N)c(C#N)cc1C#N, the Potency was inconclusive: 39.8 µM [fluorescent, single point]. With CSc1ccc(/C=N/NC(=O)c2ccc(C)c(C)c2)cc1 the Potency was “inactive”. CS/C(N)=N/N=C/c1ccc([N+](=O)[O-])cc1 was tested, and the Potency was inconclusive: 17.8 µM [quencher, side channel, partial curve]. With N#CCCN1CCN(C(=S)c2ccc(-c3ccc(Cl)cc3)o2)CC1 the Potency was inconclusive: 20 µM [quencher, side channel, partial curve]. For Cc1nnc(N2C(=O)C(=O)/C(=C(\O)c3ccc4c(c3)CC(C)O4)C2c2ccccc2)s1 (stereo not given), the Potency was inconclusive: 31.6 µM [quencher, partial curve]. With O=C1N=c2ccc(Br)cc2=C1c1sc(=S)n(NS(=O)(=O)c2ccccc2)c1O the Potency was “inactive”. In the case of Cc1cccc(-n2c(C)cc(/C=C3\NC(=O)NC3=O)c2C)c1, the Potency is reported as inconclusive: 39.8 µM [quencher, side channel, single point]. In the case of COc1ccc(S(=O)(=O)N2CCCC(C(=O)Nc3cccc(C(C)=O)c3)C2)cc1 (stereo not given), the Potency is reported as “inactive”. For O=C(COc1ccccc1)N/N=C/c1cc2c(cc1[N+](=O)[O-])OCO2, the Potency was inconclusive: 14.1 µM [quencher, side channel, partial curve]. CCOCCn1c(CN2CCN(CC)CC2)nc2c1c(=O)n(C)c(=O)n2C was tested, and the Potency was inconclusive: 100 µM [inhibitor, single point]. With COc1ccc(-c2c(C)nc(N)nc2-c2ccc(OCc3ccc(C)cc3)cc2O)cc1OC the Potency was inconclusive: 3.16 µM [fluorescent, side channel, partial curve]. With CC(=O)Nc1ccc(S(=O)(=O)NC2=C(N3CCN(Cc4ccccc4)CC3)C(=O)c3ccccc3C2=O)cc1 the Potency was inconclusive: 14.1 µM [quencher, side channel, partial curve]. For COc1cc(C(=O)NC2CCCC2)c(Br)c(OC)c1OC, the Potency was “inactive”. For COc1cc(C(=O)N2CCN(C(=O)c3ccco3)CC2)c([N+](=O)[O-])cc1OC, the Potency was inconclusive: 25.1 µM [quencher, side channel, single point]. For CCOCC(=O)Nc1ccc([N+](=O)[O-])cc1C, the Potency was inconclusive: 28.2 µM [quencher, side channel, partial curve]. COc1ccc(CCNC(=O)/C(C#N)=C2\N=C(NC(=O)c3cccs3)c3ccccc32)cc1 was tested, and the Potency was inconclusive: 2.82 µM [quencher, side channel, single point]. For Cc1ccc(S(=O)(=O)c2c(N)n(CC3CCOC3)c3nc4ccccc4nc23)cc1 (stereo not given), the Potency was “inactive”. O=C(/C=C/c1ccc(Cl)cc1Cl)NC(=S)Nc1ccc(CN2CCOCC2)cc1 was tested, and the Potency was inconclusive: 0.1 µM [fluorescent, side channel, full curve, poor fit]. For Cc1ccc(-n2nc(C)c3c(-c4cccs4)c(C#N)c(N)nc32)cc1, the Potency was inconclusive: 39.8 µM [fluorescent, side channel, single point]. For Cc1cccc(CC2CC(=O)N(c3ccc([N+](=O)[O-])cc3)C2=O)c1 (stereo not given), the Potency was inconclusive: 15.8 µM [quencher, side channel, partial curve]. O=C(Nc1cc(S(=O)(=O)N2CCCC2)ccc1OCC(F)(F)F)c1ccc(F)cc1 was tested, and the Potency was inconclusive: 10 µM [fluorescent, side channel, full curve]. With COc1ccc(C(=O)/C=C2/C(=O)Nc3ccccc32)cc1OC the Potency was “inactive”. With O=C1c2ccccc2S(=O)(=O)N1CCS(=O)(=O)c1ccc(F)cc1 the Potency was “inactive”. COc1cccc(/C=C/C2=CC(C)(C)NC(=S)N2)c1 was tested, and the Potency was “inactive”. CCN(CC)c1ccc2cc(C(C)=O)c(=O)oc2c1 was tested, and the Potency was inconclusive: 10 µM [quencher, side channel, partial curve]. COc1ccc(/C=C2\Oc3cc(OCC(=O)N4CCC(C(=O)O)CC4)ccc3C2=O)c(OC)c1OC was tested, and the Potency was inconclusive: 12.6 µM [quencher, partial curve]. For CCNC(=O)C12CCC(C)(C(=O)C1Br)C2(C)C (stereo not given), the Potency was inconclusive: 0.178 µM [fluorescent, side channel, full curve, poor fit]. With CCCCNc1ccc(C(CC(N)=O)NC(=O)c2ccccc2)cc1[N+](=O)[O-] (stereo not given) the Potency was inconclusive: 7.94 µM [quencher, side channel, full curve]. C/C(Cn1nnc([N+](=O)[O-])n1)=N\NC(=O)c1ccc(Cl)c(Cl)c1 was tested, and the Potency was inconclusive: 15.8 µM [quencher, side channel, partial curve]. For CN(C)CCNC(=O)/C(=C/c1ccc(-c2cccc([N+](=O)[O-])c2)o1)NC(=O)c1ccccc1, the Potency was inconclusive: 14.1 µM [quencher, side channel, partial curve]. With COc1ccccc1/C=C/C=N/NC(=O)Cc1cccn1C the Potency was inconclusive: 39.8 µM [quencher, side channel, single point]. O=C(c1cc2ncc(Br)cn2n1)N1CCN(C(=O)c2ccco2)CC1 was tested, and the Potency was inconclusive: 28.2 µM [quencher, side channel, single point]. For NNc1nc(-c2ccccc2)nc2sc3c(c12)CCCC3, the Potency was inconclusive: 0.1 µM [fluorescent, side channel, full curve, poor fit]. With N#C/C(=C\c1ccc(N2CCOCC2)o1)C(=O)NCCc1ccccc1 the Potency was inconclusive: 11.2 µM [quencher, side channel, partial curve]. With CCOc1ccc(NCC(=O)N/N=C/C=C/c2ccccc2)cc1 the Potency was inconclusive: 39.8 µM [quencher, side channel, single point]. In the case of O=C(CN1C(=O)c2ccccc2C1=O)Nc1cccc(O)c1, the Potency is reported as inconclusive: 15.8 µM [quencher, side channel, partial curve]. In the case of COc1ccc(NC2CC(=O)N(c3ccc(C(=O)O)cc3)C2=O)cc1 (stereo not given), the Potency is reported as inconclusive: 35.5 µM [quencher, side channel, single point]. For COc1ccc(NC(=O)N2c3ccc(OC)cc3C(C)=CC2(C)C)cc1, the activity change, negative = inhibition was inactive: 16.5% [at 11.5 µM]. With CCOC(=O)N1CCC(N2C(=O)c3ccc(C(=O)O)cc3C2=O)CC1 the Potency was inconclusive: 28.2 µM [quencher, side channel, partial curve]. With Nc1cccnc1Sc1cccc(Cl)c1 the Potency was inconclusive: 10 µM [quencher, side channel, partial curve]. In the case of Cc1ccc2nc(C)c3c(c2c1)N(c1ccccc1)CC3, the Potency is reported as inconclusive: 8.91 µM [quencher, side channel, partial curve]. With CCSc1nccc(-c2nn(-c3ccc(C)cc3)ccc2=O)n1 the Potency was inconclusive: 15.8 µM [quencher, side channel, partial curve]. For O=[N+]([O-])c1ccc(N/N=C/c2cccc(O)c2O)cc1, the Potency was inconclusive: 12.6 µM [quencher, side channel, partial curve]. In the case of CCOC(=O)c1cnc2c(Cl)cc(Cl)cc2c1NCCCN1CCOCC1, the Potency is reported as “inactive”. In the case of Cc1csc(NC(=O)/C=C/c2ccc(C)o2)n1, the Potency is reported as inconclusive: 0.794 µM [quencher, side channel, single point]. Cc1ccccc1C(=O)Nc1sc2c(c1C(=O)O)CCC2 was tested, and the Potency was “inactive”. C=CCc1ccc(OCCCOc2ccc(C)cc2OC)c(OC)c1 was tested, and the Potency was “inactive”. In the case of CN(C)/C=C/C(=O)c1ccc(Cl)cc1, the Potency is reported as “inactive”. In the case of Cc1cccc(C)c1Nc1c(-c2ccc(N3CCOCC3)cc2)nc2cnccn12, the Potency is reported as inconclusive: 20 µM [quencher, side channel, single point]. With O=C(CC1SC(N2CCOCC2)=NC1=O)Nc1cc([N+](=O)[O-])ccc1Cl (stereo not given) the Potency was inconclusive: 3.16 µM [quencher, side channel, single point]. For COc1ccc(N(C(=O)c2ccco2)C(C(=O)NC2CCCC2)c2cccs2)cc1OC (stereo not given), the Potency was inconclusive: 1 µM [quencher, side channel, full curve]. With O=C(NC(=S)NCCN1CCOCC1)c1ccc(F)cc1 the Potency was inconclusive: 20 µM [inhibitor, single point]. With O=C(NCc1ccc(F)cc1)c1ccc(N2CCOCC2)c([N+](=O)[O-])c1 the Potency was inconclusive: 25.1 µM [quencher, side channel, partial curve].
